Read-outs that look alike come from different tables or passages of the source.
How the values were obtained:
βAR34-424 [1] = target: T1, βAR34-424 (Meleagris gallopavo, UniProt P07700, C116L)
Procedure: FIGS. 8A and 8B Saturation binding assays of membranes of βAR34-424 and βAR-m23. Binding assays were performed as described in “Methods” using [^3H]-dihydroalprenolol (DHA) as radioligand; βAR34-424 (a) and βAR-m23 (b). Scatchard plots are shown as insets along with the corresponding values for Bmax and KD. Data points are from duplicates of two independent experiments for each protein.
[…] . This is consistent with the observation that none of the mutations in βAR-m23 correspond with amino acids believed to be implicated in ligand binding. […] . From a crystallisation perspective, this is an added bonus to thermostabilisation, because it is essential to have a conformationally homogeneous protein population for the production of diffraction-quality crystals.
Receptors were eluted in 2×100 μl of buffer (0.4 M NaCl, 1 mM EDTA, 250 mM imidazole pH 8, plus the relevant detergent). […] .
Non-specific binding was determined in the presence of 1 μM of s-propranolol. […] .

βAR34-424 [2] = target: T1, βAR34-424; experiment: biochemical; type: binding, turkey
[3] = Thermostability of detergent-solubilised βAR34-424 and mutants ([3H]-DHA binding after heating 30 min)

## 1-[4,6-propyl-^3H]-dihydroalprenolol [[^3H]-dihydroalprenolol]
βAR34-424 [1]; membranes, n=2
  Kd: 2.8 ± 0.1 nM
βAR34-424 [1]; semipurified receptor
  Kd: 3.7 nM

## C=CCc1ccccc1OC[C@@H](O)CNC(C)C [alprenolol]
βAR34-424 [2]
  EC50: 78 nM

## βAR34-424: truncated turkey β1 adrenergic receptor, residues 34-424, C116L, C-terminal His10; parent receptor
[3]; antagonist bound versus without antagonist
  increase in Tm with bound antagonist: 6 °C
[3]; apo-state heated 30 min, E. coli expressed, DDM-solubilised, mean ± S.E. from duplicates
  Tm: 31.7 ± 0.1 °C
[3]; in NG, extrapolated from about 20° C. difference
  predicted Tm: about 5 °C
[3]; resin washed with OG, NG or LDAO
  active receptor eluting from resin: no active receptors
